Laboratory results from the supplement of paper PMC3334620.
Over roughly 33,000 sequences, “E-score (-0.5 to 0.5)” has its median near -0.032; the highest 2% begin near 0.36. The list shows a part of the results.

These sequences were tested against T1, Sko1 (UniProt Q02100) (assay: PBM E-score (8-mer binding enrichment) (E-score (-0.5 to 0.5)); higher = stronger / more preferred TF binding; most listed sequences are background and not binding sites). Settings: protein concentration: 200 nM; construct: GST-full length.
T1 sequence: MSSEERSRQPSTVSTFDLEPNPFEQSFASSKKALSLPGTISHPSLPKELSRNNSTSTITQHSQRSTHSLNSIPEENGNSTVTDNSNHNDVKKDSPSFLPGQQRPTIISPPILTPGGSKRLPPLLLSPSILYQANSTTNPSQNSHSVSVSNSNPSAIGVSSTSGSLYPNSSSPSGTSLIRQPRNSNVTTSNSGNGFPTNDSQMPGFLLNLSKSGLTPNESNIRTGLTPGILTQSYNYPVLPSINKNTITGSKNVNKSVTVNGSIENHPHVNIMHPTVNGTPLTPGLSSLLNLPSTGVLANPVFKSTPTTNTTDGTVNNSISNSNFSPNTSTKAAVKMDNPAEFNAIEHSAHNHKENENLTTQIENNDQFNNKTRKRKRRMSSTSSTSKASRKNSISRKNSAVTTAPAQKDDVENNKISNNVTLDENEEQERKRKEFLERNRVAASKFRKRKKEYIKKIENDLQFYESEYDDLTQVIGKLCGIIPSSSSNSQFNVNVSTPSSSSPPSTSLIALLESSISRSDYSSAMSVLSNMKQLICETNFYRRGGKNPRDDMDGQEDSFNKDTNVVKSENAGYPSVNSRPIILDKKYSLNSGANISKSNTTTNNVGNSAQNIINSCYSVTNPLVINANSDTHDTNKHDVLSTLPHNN
Method: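 Universal 'all 10-mer' protein binding microarrays (Agilent AMADID 015681) probed with GST-tagged S. cerevisiae TFs (full-length or DBD) made by in vitro transcription/translation (PURExpress), about 100-200 nM. Bound TF was detected with fluorescent anti-GST. Each ungapped 8-mer (which stands for itself and its reverse complement) is scored by the PBM enrichment score (E-score), a modified Wilcoxon-Mann-Whitney statistic from -0.5 to +0.5, computed with the Universal PBM Analysis Suite. Scale: above 0.35 generally sequence-specific binding.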
In the case of GTAACGTA, the “PBM E-score” value is reported as 0.421. For CTCGGCAA, the “PBM E-score” value was -0.0838. In the case of CAAGCAAC, the “PBM E-score” value is reported as 0.122. ACCGAAGA was tested, and the “PBM E-score” value was 0.0708. AATTCTAG was tested, and the “PBM E-score” value was 0.0547. In the case of AATCAATT, the “PBM E-score” value is reported as 0.114. With AGGATACC the “PBM E-score” value was -0.201. In the case of AGGCACTA, the “PBM E-score” value is reported as -0.0926. ATACGTCC was tested, and the “PBM E-score” value was 0.369. AGCTAGCG was tested, and the “PBM E-score” value was -0.0649. For AGTTTAGA, the “PBM E-score” value was 0.0209. In the case of AGGTGGAA, the “PBM E-score” value is reported as 0.00738. CCTATAAG was tested, and the “PBM E-score” value was -0.147. With ACAAGTCG the “PBM E-score” value was -0.166. For ACAGATCC, the “PBM E-score” value was 0.0595. AAACACGT was tested, and the “PBM E-score” value was 0.413. In the case of AGCGACCG, the “PBM E-score” value is reported as -0.0747. For AACGGCGG, the “PBM E-score” value was -0.353. CAACAGGG was tested, and the “PBM E-score” value was -0.154. For CTTGTTCA, the “PBM E-score” value was 0.072. With CCGTACGG the “PBM E-score” value was -0.262. With ACAGTGGG the “PBM E-score” value was -0.343. AAAGTATA was tested, and the “PBM E-score” value was 0.208. With ATAACGAA the “PBM E-score” value was 0.268. In the case of CAAGGTTA, the “PBM E-score” value is reported as 0.0617. With ACCTCCGC the “PBM E-score” value was -0.349. CAGACCAA was tested, and the “PBM E-score” value was -0.0712. In the case of CAAGCACA, the “PBM E-score” value is reported as -0.152. For AATAATTG, the “PBM E-score” value was 0.0921. With GTCGTGAA the “PBM E-score” value was 0.0748. In the case of TGCCAGCA, the “PBM E-score” value is reported as -0.0186. For GCGGTACC, the “PBM E-score” value was -0.238. For GAATTAGC, the “PBM E-score” value was 0.0445. With GAGATCAC the “PBM E-score” value was 0.00833. In the case of AAAGTAAT, the “PBM E-score” value is reported as 0.214. For AGAAGTAC, the “PBM E-score” value was 0.106. For TGCGCAAA, the “PBM E-score” value was 0.107. For AACACACA, the “PBM E-score” value was 0.0918. TCACAGCA was tested, and the “PBM E-score” value was 0.034. In the case of CCGATAGA, the “PBM E-score” value is reported as -0.274. In the case of CAACAACG, the “PBM E-score” value is reported as 0.138. CCTTTAGA was tested, and the “PBM E-score” value was -0.183. In the case of CAGTAAAA, the “PBM E-score” value is reported as 0.265. ACGGTATC was tested, and the “PBM E-score” value was 0.0965. In the case of ATCGTGAA, the “PBM E-score” value is reported as -0.0642. With CTAATGAC the “PBM E-score” value was 0.299. With CCAGAAAA the “PBM E-score” value was 0.111. For CCGTGGTA, the “PBM E-score” value was -0.172. AACGGCCC was tested, and the “PBM E-score” value was -0.397. CATCATAA was tested, and the “PBM E-score” value was 0.299. GCAATAGC was tested, and the “PBM E-score” value was 0.0541. In the case of CGCAATGA, the “PBM E-score” value is reported as 0.277. ATCAGTAA was tested, and the “PBM E-score” value was 0.187. With GGTCGACC the “PBM E-score” value was -0.143. CTTCTTCA was tested, and the “PBM E-score” value was -0.0914. In the case of CATGCCCG, the “PBM E-score” value is reported as -0.0373. With GCAAAATA the “PBM E-score” value was 0.139. For TAAGAATA, the “PBM E-score” value was 0.153. For ATGCGTCG, the “PBM E-score” value was 0.0928. With ACAGAGTG the “PBM E-score” value was 0.0194. AGAATAAA was tested, and the “PBM E-score” value was 0.178. For AATGATAT, the “PBM E-score” value was 0.285. For GTGCCTAA, the “PBM E-score” value was -0.052. For GACGGCTA, the “PBM E-score” value was -0.0929. In the case of AGGGACAT, the “PBM E-score” value is reported as -0.152. For CTTACTGA, the “PBM E-score” value was 0.0116. In the case of CGTTATGC, the “PBM E-score” value is reported as 0.262. ACTTTGTA was tested, and the “PBM E-score” value was 0.189. With CGGCCTAC the “PBM E-score” value was -0.0111. ATCTACAC was tested, and the “PBM E-score” value was 0.173. CCCGATAG was tested, and the “PBM E-score” value was -0.304. With CAATTCCA the “PBM E-score” value was -0.201. With CCCCTACC the “PBM E-score” value was -0.0799. In the case of ACAAAAAG, the “PBM E-score” value is reported as 0.147. With ATGCTGAC the “PBM E-score” value was 0.185. ACAAGCAT was tested, and the “PBM E-score” value was -0.0431. In the case of GAAGTAGA, the “PBM E-score” value is reported as 0.0821. AGCCACAG was tested, and the “PBM E-score” value was -0.248. In the case of CGATGCTC, the “PBM E-score” value is reported as -0.247. In the case of TAAACGGA, the “PBM E-score” value is reported as -0.0437. With TCACTGCA the “PBM E-score” value was 0.175. In the case of CGATACGA, the “PBM E-score” value is reported as 0.102. For ACTTTTAT, the “PBM E-score” value was 0.162. In the case of ATCATTTG, the “PBM E-score” value is reported as 0.175. In the case of GGGTAATA, the “PBM E-score” value is reported as 0.0779. With AATAAGAT the “PBM E-score” value was 0.249.
